This is an account of results in paper PMC4336329 (PLoS ONE, 2015).

The campaign covered roughly 310,000 compounds. About 2,200 (0.71%) showed an effect of 50% or more. The effect is printed as a negative number. This is one part of the list.

This test deals with human ether-à-go-go-related gene (hERG) potassium channel (human, UniProt Q12809). In words: primary screen, population patch clamp on CHO cells stably expressing hERG.
Chain of human ether-à-go-go-related gene (hERG) potassium channel (Q12809 whole entry, looked up): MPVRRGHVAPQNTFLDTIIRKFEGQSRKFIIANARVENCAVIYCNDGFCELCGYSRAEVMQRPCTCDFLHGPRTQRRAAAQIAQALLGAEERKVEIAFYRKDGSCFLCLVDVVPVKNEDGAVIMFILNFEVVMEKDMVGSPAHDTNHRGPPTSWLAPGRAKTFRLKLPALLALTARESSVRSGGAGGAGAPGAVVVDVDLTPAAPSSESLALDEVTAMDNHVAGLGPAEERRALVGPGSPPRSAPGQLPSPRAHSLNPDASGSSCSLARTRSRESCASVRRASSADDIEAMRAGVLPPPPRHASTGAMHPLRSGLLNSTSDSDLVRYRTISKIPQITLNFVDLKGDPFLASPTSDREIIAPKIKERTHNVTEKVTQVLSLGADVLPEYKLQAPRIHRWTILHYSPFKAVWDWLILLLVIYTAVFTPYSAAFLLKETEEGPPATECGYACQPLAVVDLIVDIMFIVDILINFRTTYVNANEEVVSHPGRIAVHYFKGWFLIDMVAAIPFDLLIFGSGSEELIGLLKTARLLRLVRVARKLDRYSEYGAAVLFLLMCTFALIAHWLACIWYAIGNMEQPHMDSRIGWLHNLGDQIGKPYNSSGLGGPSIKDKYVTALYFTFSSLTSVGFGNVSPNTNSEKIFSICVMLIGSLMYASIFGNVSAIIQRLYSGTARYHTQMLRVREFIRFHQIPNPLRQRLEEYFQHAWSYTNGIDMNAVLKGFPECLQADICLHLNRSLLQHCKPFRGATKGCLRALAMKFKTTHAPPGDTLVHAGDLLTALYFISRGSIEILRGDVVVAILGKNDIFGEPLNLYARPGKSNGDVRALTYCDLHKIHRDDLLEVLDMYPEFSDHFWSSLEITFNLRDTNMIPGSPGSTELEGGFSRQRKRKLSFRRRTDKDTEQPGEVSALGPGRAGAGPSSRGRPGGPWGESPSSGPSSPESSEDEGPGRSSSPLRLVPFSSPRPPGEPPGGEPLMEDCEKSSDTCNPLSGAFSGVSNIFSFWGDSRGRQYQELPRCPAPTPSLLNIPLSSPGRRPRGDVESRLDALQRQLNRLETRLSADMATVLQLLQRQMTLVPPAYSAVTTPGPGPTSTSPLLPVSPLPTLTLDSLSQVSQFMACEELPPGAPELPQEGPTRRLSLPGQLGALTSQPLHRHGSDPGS
As for `O=C(CN1CCOCC1)c1c[nH]c2ccccc12`, the “hERG current change (%, negative = inhibition) at 1uM” value stood at 9.04%.

On to `O=C(NCc1ccccc1)c1ccc(Cl)cc1[N+](=O)[O-]`, for which the “hERG current change (%, negative = inhibition) at 1uM” value is given as 13.3%.

With `Cc1occc1-c1nnc(SCC(=O)Nc2ccccc2-c2ccccc2)n1C`, the “hERG current change (%, negative = inhibition) at 1uM” value is on record as -4.18%.

Take `COc1ccc(Nc2nc3nonc3nc2N2CCCCC2)cc1`: the “hERG current change (%, negative = inhibition) at 1uM” value amounted to 3.39%.

With `O=C(N/N=C/c1ccncc1)c1ccc2c(c1)OCO2`, the “hERG current change (%, negative = inhibition) at 1uM” value came to 18.1%.

As to `Cc1cc(C)c(C(=O)COC(=O)c2nn(C)c(=O)c3ccccc23)cc1C`, the “hERG current change (%, negative = inhibition) at 1uM” value is -3.12%.

In the case of `CC1(C)CC(=O)C(C2c3ccccc3S(=O)(=O)c3ccccc32)C(=O)C1`, the “hERG current change (%, negative = inhibition) at 1uM” value amounted to 16.3%.

Regarding `COC(=O)c1ccc(COc2ccc(/C=N/Nc3cccc(C(=O)O)c3)cc2)cc1`, the “hERG current change (%, negative = inhibition) at 1uM” value was found to be 19.2%.

Regarding `C1CCCCC1.OCCN1CCN(C2Cc3cc(Cl)ccc3Sc3ccc(Cl)cc32)CC1` (centres unmarked), the “hERG current change (%, negative = inhibition) at 1uM” value was 15.5%.

As for `CCCc1cc(C(=O)N2CCN(C(c3ccccc3)c3ccccc3)CC2)no1`, the “hERG current change (%, negative = inhibition) at 1uM” value is 0.879%.

As for `CCSCc1nnc(SCC(=O)Nc2cccc(SC)c2)n1C`, the “hERG current change (%, negative = inhibition) at 1uM” value amounted to 2.41%.

As to `CC1CCCCC1NC(=O)/C(C#N)=C/c1ccc2c(c1)OCCO2` (centres unmarked), the “hERG current change (%, negative = inhibition) at 1uM” value was 0.128%.

On to `Cc1cccc(/C(N)=N/OC(=O)c2cccnc2)c1`, for which the “hERG current change (%, negative = inhibition) at 1uM” value was found to be 1.85%.

As for `O=C(CCCN1C(=O)c2cccc3cccc(c23)C1=O)N1CCc2ccccc2C1`, the “hERG current change (%, negative = inhibition) at 1uM” value was -2.69%.

On to `CCN(CC)C(=O)Cn1cc(C(=O)C2CC2)c2ccccc21`, for which the “hERG current change (%, negative = inhibition) at 1uM” value is listed as 9.94%.

Take `CCOC(=O)Cc1csc(NC(=O)CCN2C(=O)c3cccc([N+](=O)[O-])c3C2=O)n1`: the “hERG current change (%, negative = inhibition) at 1uM” value worked out at 9.69%.

For the compound `COc1cc(C(=O)N(C)CCOc2ccc(C)cc2)ccc1OC1CCN(C(C)=O)CC1`, the “hERG current change (%, negative = inhibition) at 1uM” value was 11.8%.

Take `COc1cccc(CSc2nc3ccccc3[nH]2)c1`: the “hERG current change (%, negative = inhibition) at 1uM” value is 3.25%.

Consider `Cc1cc(NS(=O)(=O)c2ccc(NC(=S)NC(=O)c3cccc(S(=O)(=O)N(C)C)c3)cc2)no1`, for which the “hERG current change (%, negative = inhibition) at 1uM” value was 7.27%.

Turning to `O=C(COc1cccc2ccccc12)N/N=C/c1ccc(Sc2nc3ccccc3s2)o1`, the “hERG current change (%, negative = inhibition) at 1uM” value turned out to be 29.1%.

`COc1cc(/C=N/Nc2cc(C)nc(N)n2)ccc1O`: the “hERG current change (%, negative = inhibition) at 1uM” value is recorded as 5.51%.

Consider `CN(C(=O)c1cccc(S(=O)(=O)N2CCCC2)c1)C1CCCCC1`, for which the “hERG current change (%, negative = inhibition) at 1uM” value came out at 8.18%.

With `CCCCn1c(/N=C/c2ccc3c(c2)OCO3)nc2ccccc21`, the “hERG current change (%, negative = inhibition) at 1uM” value amounted to 7.75%.

As to `O=C(NCc1ccccc1)NC1(C(=O)Nc2ccc3c(c2)OCCO3)CCCCC1`, the “hERG current change (%, negative = inhibition) at 1uM” value stood at 9%.

Regarding `Cc1ccc(OCc2ccc(C(=O)O)o2)cc1C`, the “hERG current change (%, negative = inhibition) at 1uM” value amounted to 15.7%.

On to `CCCOc1ccc(N2CC(C(=O)Nc3ncccc3C)CC2=O)cc1` (centres unmarked), for which the “hERG current change (%, negative = inhibition) at 1uM” value is on record as 6.33%.

For `COc1ccc(-c2ccc(C(=S)N3CCN(C(C)=O)CC3)o2)cc1`, the “hERG current change (%, negative = inhibition) at 1uM” value is on record as -24.7%.

Consider `CCOC(=O)CC(C#N)c1c[nH]c2ccccc12` (centres unmarked), for which the “hERG current change (%, negative = inhibition) at 1uM” value came to 13.8%.

As for `COc1ccc(CN2CCN(Cc3csc(C(C)=O)c3)CC2CCO)c(C)c1C` (centres unmarked), the “hERG current change (%, negative = inhibition) at 1uM” value was -8.18%.

For `CC(C)(C)c1ccc(Oc2coc3cc(OCC(=O)O)ccc3c2=O)cc1`, the “hERG current change (%, negative = inhibition) at 1uM” value is -7.15%.

Consider `CCN(CC)CCCn1c2c(c(SCC(=O)Nc3nc4ccccc4s3)nc1=O)CCC2`, for which the “hERG current change (%, negative = inhibition) at 1uM” value is reported as -35.9%.

Take `COc1ccc(OCCCC(=O)Oc2ccc(OC)cc2)cc1`: the “hERG current change (%, negative = inhibition) at 1uM” value is 1.13%.

As for `COc1ccc(C2c3ccc(O)cc3Oc3ncn4nc(-c5ccccn5)nc4c32)cc1OC` (centres unmarked), the “hERG current change (%, negative = inhibition) at 1uM” value is -50.1%.

Turning to `O=C(NNS(=O)(=O)c1ccccc1[N+](=O)[O-])c1ccccc1Cl`, the “hERG current change (%, negative = inhibition) at 1uM” value is 26.1%.

`COc1ccc(C(=O)CSc2nnc(C(CO)NC(=O)c3ccc(OC)cc3)n2C)cc1` (centres unmarked): the “hERG current change (%, negative = inhibition) at 1uM” value came out at 8.35%.

Take `N#Cc1c(C(F)(F)F)cc(-c2ccccc2)[nH]c1=O`: the “hERG current change (%, negative = inhibition) at 1uM” value is 9.98%.

Turning to `O=C(Nc1ccc2nc3n(c(=O)c2c1)CCCC3)c1cccc([N+](=O)[O-])c1`, the “hERG current change (%, negative = inhibition) at 1uM” value is listed as 1.94%.

For `CN(C)c1ccc(/C=N/NS(=O)(=O)c2ccc(Br)cc2)cc1`, the “hERG current change (%, negative = inhibition) at 1uM” value was found to be 10.1%.

With `CCC(=O)c1cc(F)ccc1OCC(=O)N1CCN(c2ccc(F)cc2)CC1`, the “hERG current change (%, negative = inhibition) at 1uM” value is given as -43.9%.

As to `Cc1ccc(CNS(=O)(=O)c2c(C)[nH]c(C)c2C(=O)N2CCCCC2)cc1`, the “hERG current change (%, negative = inhibition) at 1uM” value was 14.5%.

On to `COCCN(C(=O)C(C)C)c1nnc(-c2ccc(C(C)(C)C)cc2)s1`, for which the “hERG current change (%, negative = inhibition) at 1uM” value worked out at 9.65%.

Consider `O=[N+]([O-])c1ccc(Cl)cc1`, for which the “hERG current change (%, negative = inhibition) at 1uM” value is 8.95%.

For the compound `COc1ccc(CCNC(=O)c2cccc3ccccc23)cc1OC`, the “hERG current change (%, negative = inhibition) at 1uM” value is 22%.

Consider `O=C(NCC(=O)N(c1cccnc1)C(C(=O)NC1CCCCC1)c1ccccc1)c1ccco1` (centres unmarked), for which the “hERG current change (%, negative = inhibition) at 1uM” value was 21.6%.

Regarding `CC(C)Nc1nc(-c2ccccn2)nc(-c2ccccc2)c1C#N`, the “hERG current change (%, negative = inhibition) at 1uM” value is reported as 0.0106%.

Turning to `COc1cccc2cc(C(=O)NCC3CCCO3)c(=O)oc12` (centres unmarked), the “hERG current change (%, negative = inhibition) at 1uM” value is 11.6%.

Turning to `O=C(CSc1ccc(-c2ccc(F)cc2)nn1)N1CCOCC1`, the “hERG current change (%, negative = inhibition) at 1uM” value was -3.84%.

On to `CN(C)S(=O)(=O)c1ccc(N2CCCC2)c(C(=O)NCC(=O)Nc2ccc(F)c(F)c2)c1`, for which the “hERG current change (%, negative = inhibition) at 1uM” value was determined as 5.27%.

Consider `COc1ccc(NC(=O)c2sccc2SCC#N)cc1`, for which the “hERG current change (%, negative = inhibition) at 1uM” value was 6.97%.

As to `Fc1ccccc1OCC1CCCN(Cc2nc(CC3CC3)no2)C1` (centres unmarked), the “hERG current change (%, negative = inhibition) at 1uM” value was 4.87%.

Consider `CCn1c(SCC(=O)c2c(N)n(C3CC3)c(=O)[nH]c2=O)nnc1-c1ccoc1C`, for which the “hERG current change (%, negative = inhibition) at 1uM” value was found to be 4.58%.

For `S=c1nc2ccccc2c2nc(-c3cccnc3)[nH]n12`, the “hERG current change (%, negative = inhibition) at 1uM” value was determined as 13.6%.

With `COc1cccc(CN2CCN(Cc3nc(-c4cccc(F)c4F)oc3C)CC2=O)c1`, the “hERG current change (%, negative = inhibition) at 1uM” value was -0.884%.

Regarding `CCCN(CC(=O)Nc1ccccc1C)C(=O)c1oc2ccc(OCC)cc2c1C`, the “hERG current change (%, negative = inhibition) at 1uM” value was 2.77%.

Consider `O=C(NCc1ccncc1)c1ccc(NS(=O)(=O)c2ccccc2)cc1`, for which the “hERG current change (%, negative = inhibition) at 1uM” value stood at 8.62%.

Regarding `CCCCc1cc(=O)oc2c3c(cc(OCC(=O)N4CCC[C@H]4C(=O)O)c12)OC(C)(C)CC3`, the “hERG current change (%, negative = inhibition) at 1uM” value was 13.3%.
